Data: the supplement of paper PMC11876631
Changes are numbered by the printed parent chain. Numbers in names are those of the source. ± gives the standard deviation of the averaged measurements. Laboratory Escherichia coli strains with one amino-acid change in an essential protein, pooled on minimal glucose agar with carbenicillin or gentamicin at twice the control MIC (plus kanamycin and chloramphenicol for the plasmids), 48 h. Fold change of barcode share against drug-free plates; higher = less susceptible. Active = above 20 in both replicates (the paper's putatively resistant). '<' = one read or none on drug, '>' = one read or none on a drug-free plate. Shares are relative, so most strains fall below 1 when a few take over. Listed are strains with at least 15 reads on both drug-free plates, and hits; most hits rest on fewer reference reads. Replicate rank correlation about 0.5. Edits are read from barcodes.

B1: argA V62A (protein)
chain: MVKERKTELVEGFRHSVPYINTHRGKTFVIMLGGEAIEHENFSSIVNDIGLLHSLGIRLVVAYGARPQIDANLAAHHHEPLYHKNIRVTDAKTLELVKQAAGTLQLDITARLSMSLNNTPLQGAHINVVSGNFIIAQPLGVDDGVDYCHSGRIRRIDEDAIHRQLDSGAIVLMGPVAVSVTGESFNLTSEEIATQLAIKLKAEKMIGFCSSQGVTNDDGDIVSELFPNEAQARVEAQEEKGDYNSGTVRFLRGAVKACRSGVRRCHLISYQEDGALLQELFSRDGIGTQIVMESAEQIRRATINDIGGILELIRPLEQQGILVRRSREQLEMEIDKFTIIQRDNTTIACAALYPFPEEKIGEMACVAVHPDYRSSSRGEVLLERIAAQAKQSGLSKLFVLTTRSIHWFQERGFTPVDIDLLPESKKQLYNYQRKSKVLMADLG
B2: eno V114A (protein)
chain: MSKIVKIIGREIIDSRGNPTVEAEVHLEGGFVGMAAAPSGASTGSREALELRDGDKSRFLGKGVTKAVAAVNGPIAQALIGKDAKDQAGIDKIMIDLDGTENKSKFGANAILAASLANAKAAAAAKGMPLYEHIAELNGTPGKYSMPVPMMNIINGGEHADNNVDIQEFMIQPVGAKTVKEAIRMGSEVFHHLAKVLKAKGMNTAVGDEGGYAPNLGSNAEALAVIAEAVKAAGYELGKDITLAMDCAASEFYKDGKYVLAGEGNKAFTSEEFTHFLEELTKQYPIVSIEDGLDESDWDGFAYQTKVLGDKIQLVGDDLFVTNTKILKEGIEKGIANSILIKFNQIGSLTETLAAIKMAKDAGYTAVISHRSGETEDATIADLAVGTAAGQIKTGSMSRSDRVAKYNQLIRIEEALGEKAPYNGRKEIKGQA
B3: eno L277W (protein)
chain: B2 chain with A114V, L277W
B4: eno L193A (protein)
chain: B2 chain with A114V, L193A
B5: eno V114P (protein)
chain: B2 chain with A114P
B6: eno L277Q (protein)
chain: B2 chain with A114V, L277Q
B7: eno I171Q (protein)
chain: B2 chain with A114V, I171Q
B8: eno I171A (protein)
chain: B2 chain with A114V, I171A
B9: eno V114Q (protein)
chain: B2 chain with A114Q
B10: eno L277D (protein)
chain: B2 chain with A114V, L277D
B11: eno L277A (protein)
chain: B2 chain with A114V, L277A

Target: Escherichia coli (laboratory strain)
Assay: barcode share on antibiotic plates over drug-free plates; higher = less susceptible
Protocol: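 A pool of E. coli strains, each edited to carry one amino-acid change in an essential protein, was grown for 48 h on minimal glucose agar with or without antibiotic; strain barcodes were sequenced; mean of two replicates.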

[1] = antibiotic: carbenicillin, 2× MIC (3.1 µg/mL)
[2] = antibiotic: gentamicin, 2× MIC (MIC 0.45 µg/mL)

Protein	fold change of barcode share [1]	fold change of barcode share [2]
B1	0.603 ± 0.36	0.0151 ± 0.0037
B2	0.167 ± 0.046	< 0.00674
B3	0.327 ± 0.0097	< 0.0116
B4	0.866 ± 0.41	0.827 ± 1.1
B5	0.32 ± 0.039	0.0206 ± 0.02
B6	0.164 ± 0.11	< 0.00568
B7	0.51 ± 0.3	0.351 ± 0.47
B8	0.327 ± 0.017	< 0.00506
B9	0.883 ± 0.31	–
B10	0.563 ± 0.35	0.0984 ± 0.034
B11	0.166 ± 0.077	0.0148 ± 0.011
